Source: PMC7819943, “Rice protein-binding microarrays: a tool to detect cis-acting elements near promoter regions in rice”
This is one part of the list.

biological target: T1, OsWOX13 (Oryza sativa, UniProt Q5QMM3 1-267); assay: protein-binding microarray (RPBM); PBS, 2% BSA, 51.3 ng/ul salmon testes DNA, 50 uM zinc acetate, 200 nM TF, 25 C, 1 h; high values mean tight binding; conditions: protein: recombinant; tags: N-terminal polyhistidine and DsRed monomer fusion (pET32a); label: CyDye5-dUTP incorporated in the synthesized complementary strand; 3' TTTTT single-stranded linker to array surface; dsDNA, one strand shown
T1 sequence: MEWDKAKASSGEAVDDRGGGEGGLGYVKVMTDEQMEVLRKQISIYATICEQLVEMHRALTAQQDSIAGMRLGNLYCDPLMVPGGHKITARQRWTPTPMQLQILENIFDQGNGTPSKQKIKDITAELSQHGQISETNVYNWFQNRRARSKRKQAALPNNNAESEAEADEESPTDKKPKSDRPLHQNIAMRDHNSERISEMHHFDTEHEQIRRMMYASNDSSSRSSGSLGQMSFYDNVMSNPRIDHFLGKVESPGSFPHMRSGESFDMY
Summary of the method: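 Polyhistidine-tagged DsRed fusions of transcription factors, joined at the N-terminus, were expressed in E. coli BL21-CodonPlus and isolated on Ni–NTA. They were incubated at 200 nM for 1 h at 25 °C on a custom Agilent array, double-stranded and BSA-blocked, in PBS with 2% BSA, salmon testes DNA and 50 µM zinc acetate. The binding signal is per-feature fluorescence intensity (arbitrary units) read on an Axon 4000B scanner after washing.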

| Sequence | binding signal |
| --- | --- |
| TATGAATATAATTGTCTAGTTTGTTATTTGAGATAGTGGACGGAGTCACCTAGTGCAG | 6230 fluorescence intensity (a.u.) |
| GACTCAATAATCTAGATTATAATAATCCCAAGCTAAAAGACGGAGTCACCTAGTGCAG | 8090 fluorescence intensity (a.u.) |
| ATTCAGATTCGCACATTGATTATCATTCCCCTTGGGTTCGCGGAGTCACCTAGTGCAG | 12900 fluorescence intensity (a.u.) |
| TTTAAATTTGTTCGACTGCTTCCACAAAATTTCACTCACACGGAGTCACCTAGTGCAG | 7320 fluorescence intensity (a.u.) |
| AACTGCTAATTACGCTATTTACTGTATGCCAAATATCTAACGGAGTCACCTAGTGCAG | 11400 fluorescence intensity (a.u.) |
| ATTAATTATGATCTGGTGTTTGTAATGCCCGTCTACTTGTCGGAGTCACCTAGTGCAG | 28000 fluorescence intensity (a.u.) |
| ATTAGATTGGTTATAGATAAATTGGAGTTAGTGGTGGGCTCGGAGTCACCTAGTGCAG | 49900 fluorescence intensity (a.u.) |
| TCAGGACAAATCAGCTGCTGATCAATTAATTTGGACGACTCGGAGTCACCTAGTGCAG | 8380 fluorescence intensity (a.u.) |
| CATAGTATAAAATTGATTAGAATGAATTTTGAGACAATTACGGAGTCACCTAGTGCAG | 9260 fluorescence intensity (a.u.) |
| GATATACTAATTATCCACCTTATAGAAAGATGATATGCCTCGGAGTCACCTAGTGCAG | 5820 fluorescence intensity (a.u.) |
| ATGGAGCAATTAGGTTTAAAAGATTTGTCTCGCAAATTAGCGGAGTCACCTAGTGCAG | 4620 fluorescence intensity (a.u.) |
| TATATGATTATTTTCGCGGTATGGAAAATTTAGTTGTCTTCGGAGTCACCTAGTGCAG | 22100 fluorescence intensity (a.u.) |
| ACGGAAAAGACTAATTAATCAGATGTCATACATGCAAGAACGGAGTCACCTAGTGCAG | 6420 fluorescence intensity (a.u.) |
| TGTGTAACATCATGATTTGTTTGGTTTTCAACAATTTATACGGAGTCACCTAGTGCAG | 3680 fluorescence intensity (a.u.) |
| GTCAATTTGACCTGAAGATTGGATGTGTCTTGATAGCTTGCGGAGTCACCTAGTGCAG | 7520 fluorescence intensity (a.u.) |
| TCAATCTCTAAATCAAATTTAAACTATTTTAATTTCTCCTCGGAGTCACCTAGTGCAG | 4590 fluorescence intensity (a.u.) |
| TCTACCAATCAAATCAAATGTATTCTCATACTACTATCCTCGGAGTCACCTAGTGCAG | 22700 fluorescence intensity (a.u.) |
| ACCTAACCAATTAAGATGCGTTCACTTCGCAACCCTTTAACGGAGTCACCTAGTGCAG | 5550 fluorescence intensity (a.u.) |
| AGTCTAATAACAAAACAAATTACATATTCCGCCTGTAAACCGGAGTCACCTAGTGCAG | 5290 fluorescence intensity (a.u.) |
| CTTTACCATCGATTGATTGACGACACCTGTTGCATGCATGCGGAGTCACCTAGTGCAG | 51600 fluorescence intensity (a.u.) |
| GTGGAGGGGCGGCGTTGGGCAGAGGGGCGGCACGGGTGAACGGAGTCACCTAGTGCAG | 4260 fluorescence intensity (a.u.) |

| Sequence | binding signal |
| --- | --- |
| ATTCTTGCTACCTATAATTGCAACATGACAGAGTGTTAAGCGGAGTCACCTAGTGCAG | 5950 fluorescence intensity (a.u.) |
| GCTTAAATGAATAATCTATGGTCCAAATTATCTCTCTCATCGGAGTCACCTAGTGCAG | 16200 fluorescence intensity (a.u.) |
| AAGCCTAATTAATCCGTCATTAACAAATATTTACTGTAGCCGGAGTCACCTAGTGCAG | 24100 fluorescence intensity (a.u.) |
| CTCTATGTGATGGATTATTCTTTGTTGGCAAATTGTCATTCGGAGTCACCTAGTGCAG | 6430 fluorescence intensity (a.u.) |
| AACAATTGACAGATCTGGTTTCAGGTTTAACCGTCTGCGGCGGAGTCACCTAGTGCAG | 49800 fluorescence intensity (a.u.) |
| GAGATATCTGTTGATTAAAGTCCCCATGGATTAGCTGTGTCGGAGTCACCTAGTGCAG | 3390 fluorescence intensity (a.u.) |
| AGCTAATAAATAGTTAATTTACAAGCGCTAAACAAGATAGCGGAGTCACCTAGTGCAG | 21600 fluorescence intensity (a.u.) |
| CCCTTGATGGGCTTCTCTACCTGCGCAGTGTGATCGATTACGGAGTCACCTAGTGCAG | 9420 fluorescence intensity (a.u.) |
| GATAATCACCTTTGGATCAAGCAAATCACGAAAGGACAACCGGAGTCACCTAGTGCAG | 3180 fluorescence intensity (a.u.) |
| GGATTATGTTACAGGTTTCAATCAATCCTGAGTCAAAATCCGGAGTCACCTAGTGCAG | 6360 fluorescence intensity (a.u.) |
| AATAATTTGGTTAGTTATTGTTAAGGAGAAATTTGATTCCCGGAGTCACCTAGTGCAG | 12500 fluorescence intensity (a.u.) |
| TCGAGATTGGATCAAGCGGCATTAGCAGTTTGAAAGGCCACGGAGTCACCTAGTGCAG | 22800 fluorescence intensity (a.u.) |
| CTCAGATTTGATCAGTGGTAATTTCTCATGTAATCTCATTCGGAGTCACCTAGTGCAG | 10500 fluorescence intensity (a.u.) |
| ATTTATGTAATTATCATTTATTTTATTGTAAATTTATTTACGGAGTCACCTAGTGCAG | 16300 fluorescence intensity (a.u.) |
| AGGGGAGGGGCAGGGAGTTTAATTGGGACTTGGAAGGAGGCGGAGTCACCTAGTGCAG | 4790 fluorescence intensity (a.u.) |
| TTGCTAATTGCCGCACGATGGCAAACCAAGAAACAGATTGCGGAGTCACCTAGTGCAG | 20700 fluorescence intensity (a.u.) |
| GAAATAACTAGATTATATTACTCTTTCATGCAATAAACATCGGAGTCACCTAGTGCAG | 5080 fluorescence intensity (a.u.) |
| TAATGTGTGTGTATAATTAATTAAGCAGTGAAGTGAATCGCGGAGTCACCTAGTGCAG | 5650 fluorescence intensity (a.u.) |
| ACTCCATTAATTGGTCTAGGTTTTCTATCACCACCACATGCGGAGTCACCTAGTGCAG | 28300 fluorescence intensity (a.u.) |
| GCAGCAGAGACAAGAGGACTGATTGATGAGGCCGCAAAGCCGGAGTCACCTAGTGCAG | 12200 fluorescence intensity (a.u.) |
| AATTTAATTAGTTGATTAAGTTGCACAAATTAATCTAATACGGAGTCACCTAGTGCAG | 6010 fluorescence intensity (a.u.) |
